Results reported in the supplement of paper PMC3334620.
In all, about 33,000 sequences were measured (“E-score (-0.5 to 0.5)”: median about -0.032, highest 2% from about 0.36 on). Some of the results follow.

target: T1, Sko1 (UniProt Q02100); experiment: PBM E-score (8-mer binding enrichment) (E-score (-0.5 to 0.5)); higher = stronger / more preferred TF binding; most listed sequences are background and not binding sites; settings: protein concentration: 200 nM; construct: GST-full length
T1 sequence: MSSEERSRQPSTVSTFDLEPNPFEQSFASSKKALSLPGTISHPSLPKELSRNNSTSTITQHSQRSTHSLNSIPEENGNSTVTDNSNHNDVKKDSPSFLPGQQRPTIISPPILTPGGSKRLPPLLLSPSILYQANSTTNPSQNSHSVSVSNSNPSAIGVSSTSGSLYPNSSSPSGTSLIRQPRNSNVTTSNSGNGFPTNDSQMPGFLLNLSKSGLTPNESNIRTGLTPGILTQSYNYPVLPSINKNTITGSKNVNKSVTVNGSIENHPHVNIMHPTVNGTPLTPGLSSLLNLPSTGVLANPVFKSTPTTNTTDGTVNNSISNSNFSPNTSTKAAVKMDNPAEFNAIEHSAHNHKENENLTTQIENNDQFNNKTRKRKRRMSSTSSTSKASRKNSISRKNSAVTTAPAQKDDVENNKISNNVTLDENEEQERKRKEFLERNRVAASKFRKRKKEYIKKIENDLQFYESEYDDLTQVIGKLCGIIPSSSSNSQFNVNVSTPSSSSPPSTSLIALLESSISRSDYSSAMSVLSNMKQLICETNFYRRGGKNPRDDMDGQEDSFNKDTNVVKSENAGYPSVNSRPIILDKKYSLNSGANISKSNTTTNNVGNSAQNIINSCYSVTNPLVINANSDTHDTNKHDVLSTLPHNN
In short: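 Yeast transcription factors, full-length or as DNA-binding domains, were expressed with a GST tag using PURExpress in vitro transcription/translation. At about 100-200 nM they were applied to universal all-10-mer Agilent arrays, double-stranded by primer extension on fresh or once-stripped slides. Fluorescent anti-GST detected bound protein, and masliner normalised the scans. E-scores for ungapped eight-base words, pooled with reverse complements, came from the Universal PBM Analysis Suite.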

In order of falling “PBM E-score” value:
1. ATACGTTC  0.374
2. CGACGTAG  0.368
3. ACGTGGCT  0.321
4. AAACGTGA  0.308
5. TCACGAAA  0.298
6. ACGTTTCT  0.285
7. ATGCGCAT  0.276
8. CGTGTTAA  0.266
9. AACACACG  0.266
10. CGGCTACG  0.243
11. CGTACGAG  0.242
12. ACAGTACG  0.235
13. GATACGAA  0.227
14. CCTATTAC  0.216
15. CCGAATGA  0.213
16. ATTTGAAA  0.207
17. TAACAAAA  0.204
18. AACGTTGA  0.201
19. AAATAATT  0.198
20. ATGTTTAA  0.194
21. CGTAGTTC  0.19
22. CGTGCCAC  0.182
23. GCGAATGA  0.171
24. CGCTTATA  0.165
25. CGTCTTTC  0.158
26. AGTAAAAA  0.157
27. AACATCGA  0.156
28. ACCGTACG  0.145
29. CGTTTGAA  0.143
30. CGATTGTA  0.142
31. TATGTTCA  0.141
32. TCGTTGCA  0.137
33. AATAGTAC  0.135
34. CTCAGAAC  0.13
35. GACGCTGC  0.122
36. ATCACAAA  0.119
37. AGAGAACG  0.117
38. ACATCAAA  0.1
39. CGACAGAA  0.099
40. GGTTAAAC  0.0945
41. CCGCAATA  0.0923
42. CTATGAAG  0.0914
43. ATTTTGCG  0.0854
44. ATTGCCTC  0.0801
45. AGAGATGC  0.0796
46. ATCAGGAT  0.077
47. CTCGATTA  0.074
48. CTACCAAC  0.0684
49. ATACTGTC  0.0677
50. CGCGATCA  0.0671
51. AGCTAAAT  0.0636
52. GCTTTCAA  0.0634
53. CAGTTTTA  0.0607
54. AAGCCAAT  0.0557
55. ACTAAAGA  0.0552
56. AGGCGCGC  0.0511
57. CCGTCGAG  0.0473
58. ATCGCTTC  0.0445
59. AATATTCC  0.0396
60. ACTGGTAA  0.0395
61. TTGCTAAA  0.0364
62. CAAATCGA  0.0339
63. CGAGCACG  0.0337
64. CAACAAAG  0.0333
65. GAAAACTA  0.0282
66. GCAAGGCA  0.0267
67. CGACGAAC  0.0233
68. GCCAATGA  0.0138
69. AATGCTTG  0.0118
70. AGAAGTCA  0.011
71. GACGCCGC  0.0101
72. GGAAACAC  0.00845
73. CAACCTGC  0.00356
74. GAGTCTAA  -0.00122
75. CACTCCAC  -0.00354
76. ACTCTATC  -0.012
77. ATCCGGTA  -0.013
78. ACATTGTA  -0.016
79. CCGTTAAA  -0.0181
80. CCCTTCGG  -0.0247
81. AGTCCTTA  -0.0267
82. ACGCTTCG  -0.0272
83. ACTTTCTG  -0.0274
84. ACCCTAGA  -0.0276
85. GCGTGAAC  -0.0276
86. CATTTCAG  -0.0277
87. AATCCAAC  -0.0343
88. GCCAGGGA  -0.0386
89. GGGGTAAC  -0.0418
90. CGGAGAGC  -0.0419
91. ATTGCTAG  -0.0439
92. ATGTACAG  -0.0459
93. AAGGGTTA  -0.048
94. GCAAACCA  -0.0509
95. AGCGTGGA  -0.0529
96. CTTCAAAG  -0.0612
97. CCTACAGA  -0.0623
98. CATCCGAG  -0.0637
99. CAATTCGA  -0.0639
100. CTACGCTC  -0.0646
101. GCTCTGTA  -0.0735
102. GCTTATCC  -0.0737
103. ATATGGCC  -0.0853
104. AATGAACC  -0.0854
105. CATACACC  -0.0872
106. ACTACCGC  -0.0886
107. ATTTGGGC  -0.0942
108. AGCGAGAT  -0.0977
109. GCAGTAGA  -0.0999
110. CGGTTCAA  -0.1
111. TGCCTCAA  -0.107
112. GCAGATGC  -0.115
113. GCCGAGGC  -0.116
114. AGAGTTGC  -0.118
115. CTGTGTCA  -0.118
116. GTCCGCCA  -0.125
117. CGGGCGTC  -0.132
118. CAGTCCAC  -0.144
119. AAGGTGGC  -0.149
120. ATCGGGCG  -0.151
121. AGCCTCAC  -0.151
122. ACCGCGGC  -0.155
123. AGGTGGTA  -0.157
124. GGAGCTCA  -0.167
125. GGTGCTTA  -0.169
126. AATGGGGT  -0.169
127. ATGTCCAG  -0.171
128. CTCTCCAC  -0.171
129. AGAATTTC  -0.176
130. GCCGCAGA  -0.176
131. ACAGGCTC  -0.177
132. CGATGAGC  -0.177
133. AGTAGGGA  -0.177
134. TGCACCAA  -0.177
135. GGCCACAC  -0.178
136. CTTAAGGC  -0.188
137. GGCACACA  -0.189
138. CACAGGCG  -0.19
139. AAGCAAAG  -0.19
140. ACGACCCT  -0.194
141. CAGATCTC  -0.196
142. AGTTACCC  -0.204
143. CAAGGGTA  -0.207
144. ACAACCCT  -0.208
145. ATCTCCTC  -0.209
146. ATCTAGGC  -0.213
147. ATCCGGAT  -0.219
148. CCAAAGGA  -0.224
149. AGACTCCT  -0.227
150. GGATCGAC  -0.242
151. GCTCGCCA  -0.243
152. CTGGAGCC  -0.244
153. AGATGCCC  -0.252
154. CACCTCTG  -0.264
155. AGCAGTTG  -0.27
156. ACCACCGT  -0.278
157. CCAGGTAG  -0.281
158. ACGGGGGG  -0.287
159. ACAAAGGG  -0.29
160. GCTCCCAA  -0.291
161. CTCCTGCA  -0.297
162. AGGCTCCC  -0.299
163. CGGCGCAC  -0.302
164. AGACTCCC  -0.303
165. AAGGCTCG  -0.306
166. CACAGCCG  -0.31
167. CGCCGGCC  -0.326
168. ATCCTAGG  -0.338
169. AGGCTGCC  -0.341
170. ACCCGGCA  -0.367
171. ACCCCGGT  -0.386
172. GCGCCCCC  -0.392
